From the supplement of paper PMC11417369
This is one part of the list.

system: PfSIP2 AP2 domain 1 (GST-tagged); assay: gcPBM binding intensity (ln(normalized median fluorescence intensity)); higher = stronger DNA binding
Outline: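 Using an Agilent 4 × 180k array, primer-extended double-stranded 36-bp intergenic genomic probes and negative controls were exposed for 1 h to GST-fused P. falciparum DNA-binding domains expressed in E. coli. Binding was carried out in 1× PBS with 1% milk, 0.2 mg/ml BSA, 0.5% salmon testes DNA and 0.03% Triton X-100, and protein was detected with Alexa488 anti-GST antibody and a 488 nm scan. Binding intensity is the highest Masliner-normalised natural-log median intensity across replicate spots of either probe orientation.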

| Sequence | gcPBM binding intensity (ln) |
| --- | --- |
| CCTTTCCTTTTATAAGTGCATATAACAAATGTATAC [GTGCAC_site9872] | 8.88 |
| AATAATGAAAAATCAAATAACCTAAATTACAACTGT [XGTACX_negctrl_site65] | 6.91 |
| TTTCACACTATTTCATGTACACATAAAATTATATAT [XGTACX_site8692] | 7.39 |
| TAAATATAATAAAAGTGTACTTACACTTACATATAA [XGTACX_site1206] | 6.83 |
| AACAGATAAAAGGGTACACACATATATACATGTACA [CACACA_site225] | 7.04 |
| ATATAATAAGGTTAAGCACACATATTACATATATAA [CACACA_site9110] | 7.09 |
| TTGTATATATTTCCTTGTACGTAATAATTCTTATTG [XGTACX_site3938] | 7.19 |
| TTTTATTCCGTTTCAAAATAAGAAAAAAAAAAAAAT [CACACA_negctrl_site1199] | 6.95 |
| TACTTCTCATTTGTTGTTGTATTTTAGGCATACCCT [XGTACX_negctrl_site385] | 6.96 |
| CTTATATATACGTGCACACATATATATAAGATATAT [CACACA_site1752] | 10 |
| AAAAATATAAATGACACACACTTAAAAACAAAGAAA [CACACA_site4540] | 6.84 |
| ATTTAAAAAAAAAAAAATAAATAACTTGAAAAACAA [GTGCAC_negctrl_site318] | 6.72 |
| AAGGATAATAGGTACACATGCAATATTCATATATAC [TGCATGCA_site523] | 7 |
| TTATATACATAAAAATGTACTTTTTATAAAATATAT [XGTACX_site8281] | 7.15 |
| AAGTTAGTATTCTGCTGTACTTCTATATATAAGTGT [XGTACX_site7678] | 7.1 |
| ACAACATTTCTCAAATGTACATAATATAATTTATAT [XGTACX_site3224] | 7 |
| TATTAATTCTTAAATTTTTTTTTTTAATTCCTAGGA [CACACA_negctrl_site879] | 6.54 |
| GAATGAATCAATGTTTGTACTCAACAAATTATAAGG [XGTACX_site5122] | 7.06 |
| GCCTTCCTTCTAAATGCACACGGAAAGTATAAATGT [CACACA_site8797] | 7.88 |
| CAATAATTTTTTAAATGTACTTTATTATAATTTAAT [XGTACX_site135] | 6.8 |
| TATATATAATACAGTATGCACTATTTTTATTAAAAA | 8.8 |
| TTTTCTTACATCTTATAAAAAAAAATATATATTATA [GTGCAC_negctrl_site118] | 6.9 |

| Sequence | gcPBM binding intensity (ln) |
| --- | --- |
| GTCTAACAACCAAACGCACACACACTAATAAAAAAA [CACACA_site8026] | 7.91 |
| TATTTTAAAACAAAAATATAATTTCATAAAAATATA [CACACA_negctrl_site394] | 6.57 |
| TAATATATATATTTATGTACATATAAATTTTCTCCT [XGTACX_site4496] | 7.01 |
| ATATATCAAAAATGATGACATAAATATATTAATTTA [TGCATGCA_negctrl_site259] | 6.83 |
| ATAAAATAATCTTATGCACACCAAAAATTTATATAA [CACACA_site8332] | 7.89 |
| TTTTTGTAAAATAAACGTACAAAACAATTGTTCATT [XGTACX_site6537] | 6.94 |
| TATCTGTATGTATGTACACACAAAAAATGGAATATA [CACACA_site5947] | 7.31 |
| TATAAACCAATGAACACACAAACATATATATATATA [CACACA_site3168] | 8.88 |
| TCTTTTTATATTTATTGTACATAAAAAATAAAACAT [XGTACX_site4073] | 7.39 |
| TTTTTTTTTCTTTCTTTCTTTTGTAAAAACCTCAAA [CACACA_negctrl_site723] | 6.68 |
| ATATGTATATATAAAAGTACGCGTAAAAAAAAAAAA [XGTACX_site5377] | 6.99 |
| TAAATATATAAATACACACACATACACAAAAAAAAA [CACACA_site5890] | 6.92 |
| TATACACCCTAAAATACACACACACCCACCCATATA [CACACA_site9380] | 7.11 |
| AATCACAACAGACACACACACAAAAAAAAAAAAAAA [CACACA_site1442] | 7.24 |
| ATATGTTATATAAATATATATATATATATATATATA [TGCATGCA_negctrl_site594] | 9.55 |
| TTAATATAATAGAAGTGTACACACATATTTATGTGT [XGTACX_site6672] | 7.28 |
| TAATAATAAAAATAAACACACATATATCTGTATTTA [CACACA_site5572] | 6.71 |
| ATATATATATATATAGTGCATAAAATAAGTTTCTAA | 9.62 |
| TATTTATAAACATACGCACACATTAAAATATATATA [CACACA_site6051] | 7.26 |
| GGTGGAAACAATTACACACACACAAAAAAAAAAAAA [CACACA_site3208] | 7.04 |
| TTTTTATAAATACACATAAATATATATATATATATA [TGCATGCA_negctrl_site393] | 9.2 |
| ACACAAAAAAATATATATATATATATATATATGTTA [CACACA_negctrl_site55] | 7.86 |

| Sequence | gcPBM binding intensity (ln) |
| --- | --- |
| AAAAAAAAAAAAAAATGTACATTTTGAAAGGATATA [XGTACX_site8217] | 7.38 |
| ATGCATTATTAGAATACACACCATACGCATATTTAT [CACACA_site4319] | 7.15 |
| TAAAGAAAAAGAGAATGTACATGAGAAAAGTATACT [XGTACX_site7472] | 7.05 |
| AGAAAAAAAAAAAAATGTACAGACTTTTTCTTATAA [XGTACX_site6481] | 6.79 |
| AAAAAAGATAATTATGCACACACACCCACCCACCCA [CACACA_site8825] | 8.12 |
| ATATACACACAAAAACGTACACATATATATATGTAT [XGTACX_site2673] | 7.28 |
| GGTATAATAATATATAGTACACACAAAAATGGAAGT [XGTACX_site7058] | 7.45 |
| AAAAAAAAAAAAAGCACACATATAAATATGAATAAA [CACACA_site1393] | 7.18 |
| AAAAAAAAAAAAAACACACACATACACCCAAAAATG [CACACA_site4223] | 7.48 |
| AAAAAAAAAAAAAAAAAAAAAAAAATATATAATTTA [CACACA_negctrl_site583] | 8.71 |
| CAATCATGGGTTTACACACACATGCATGTGAAAATT [CACACA_site1349] | 6.84 |
| CATATTAAAAATTATTGTACATATTAATGAATATAA [XGTACX_site2734] | 7.07 |
| GATGATAATAAATTTATATATAATATTATCTTATGT [GTGCAC_negctrl_site672] | 6.9 |
| ATTTTTGCAGTAATTAAATAGACAAAATGAAAAAAA [CACACA_negctrl_site1537] | 7.15 |
| AACCAAACAAATAAACGTACAAACATTACATATATT [XGTACX_site2265] | 7.05 |
| ACAATAAAGAAGTGTACACATATATCAATAAAAAAA [CACACA_site5228] | 7.13 |
| AAAATAATATTTAATACACACATAATTTTAATATAA [CACACA_site4588] | 6.7 |
| TACTTATATTATTTTATTATTAAATTTAAAACGAAA [CACACA_negctrl_site736] | 6.99 |
| GTAAGAAACAGACACACACACATATATATATATATA [CACACA_site794] | 9.69 |
| GAACAGTTTGTTTAGTGTACTTTTTTTTTTTTTTTT [XGTACX_site8881] | 7.65 |
| AATAATTTTATCGGTACACACTGTATGCATAATATT [CACACA_site4364] | 7.14 |
| CTTAATTTAATGAAATGTACATATAAAAATATTATA [XGTACX_site3303] | 7.11 |

| Sequence | gcPBM binding intensity (ln) |
| --- | --- |
| TTTGATCGATGGATTTAACACACAAAAAAAAAAAAA [CACACA_site9279] | 7.01 |
| ATGTACAAAATAAGCACACACAAAAAAAAAAAAAAT [CACACA_site2998] | 7.05 |
| TCAAAAATAAAGATCACACATATATATATATATATA [CACACA_site4381] | 9.99 |
| TCTAATTACAAAAACATACACACAAAAAAAAAAAAA [CACACA_site3783] | 6.89 |
| CCTATAAATGCATTCACACATATATATTTATATTAT [CACACA_site6086] | 7.18 |
| ATGATAAACATGGATACACACATATAGATTGCATAT [CACACA_site6843] | 6.97 |
| ATATATATTAACAATACACACGTGTATACCTTATTG [CACACA_site5258] | 7.26 |
| TTCATCTTAAAATTGGGTACATAACACAAAGTATAA [XGTACX_site1894] | 7.05 |
| ATTTCTCTATCGTAATGTACATAAAAAAGAAAAACA [XGTACX_site6374] | 7.13 |
| TTATTAAATTCATAAGTGCATTTATGATTAATTTTT [GTGCAC_site9749] | 9.08 |
| TTACATGTAAAAGGTACACACATTATGTATACAAAT [CACACA_site1117] | 7.15 |
| TTTTTTTTTTTTTTTTGTCCGTACTGCTTTGTGTTT [XGTACX_site3687] | 6.99 |
| CTATAAATATTTTATTGTACACACTTTTTATGAATG [XGTACX_site6711] | 7.22 |
| ATATATATATAGTGCACACTTAAGAATATAAAGAGG [CACACA_site1151] | 10.1 |
| AAAATTTTTAGTTATACACACAACATAGAAAATATT [CACACA_site328] | 7 |
| AATACATACAGACACACACACACATATATATATATA [CACACA_site3558] | 9.52 |
| AAACTTAATATCGGTACACACACAAGATAAGAATTA [CACACA_site8200] | 6.97 |
| CACATACACCCATACACACACATATATATTAAGATA [CACACA_site4459] | 7.6 |
| AAAAGGAAAAATATCACACATATATATATATATATA [CACACA_site5586] | 9.92 |
| ATTATTATACACAAATGTACATGTGAATTTTTTTTC [XGTACX_site6982] | 6.96 |
| AATAAGTAACAAAATACACACATATAGGTAATTATA [CACACA_site6949] | 6.83 |
| ATATATATTTATAGGTGTACAAAATACTATTTTAGG [XGTACX_site8499] | 7.17 |
